According to PubChem BioAssay AID1476 (National Center for Advancing Translational Sciences (NCATS), 2009):
Several values for one entry are separate records, joined by “and”; a condition that tells them apart may be missing. Equal values may be shown once. The whole screen tested about 200,000 compounds, of which about 4,500 (2.2%) were called active. The shares of active, inactive and inconclusive entries below differ from those in the screen. Calls come from the whole dose curve; as a rule, active = well fitted inhibition curve with a large enough effect; inconclusive = small, poorly fitted or top-dose-only effect, or effect the other way; inactive = flat fitted curve, though single readings scatter. A potency beside an inconclusive call is a rough fit, not a confirmed value.

Target: Cruzipain (Trypanosoma cruzi) (UniProt P25779)
Sequence of UniProt P25779 (P25779 whole entry, looked up): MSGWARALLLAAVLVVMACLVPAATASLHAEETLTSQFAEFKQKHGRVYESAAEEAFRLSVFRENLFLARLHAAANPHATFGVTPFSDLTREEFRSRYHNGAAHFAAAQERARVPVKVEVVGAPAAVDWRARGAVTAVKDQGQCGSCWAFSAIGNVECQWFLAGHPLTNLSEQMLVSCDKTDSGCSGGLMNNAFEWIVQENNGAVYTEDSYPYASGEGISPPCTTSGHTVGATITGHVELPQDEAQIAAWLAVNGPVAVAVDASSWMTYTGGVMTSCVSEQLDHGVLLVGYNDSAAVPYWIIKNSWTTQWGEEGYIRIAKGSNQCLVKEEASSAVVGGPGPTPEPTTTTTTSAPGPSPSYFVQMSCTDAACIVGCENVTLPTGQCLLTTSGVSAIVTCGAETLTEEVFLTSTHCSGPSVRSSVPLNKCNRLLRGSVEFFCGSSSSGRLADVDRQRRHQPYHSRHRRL
Assay: qHTS Assay for Promiscuous and Specific Inhibitors of Cruzain (without detergent); note: nearly all actives have a fitted effect of over 40% in size;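 for max response, negative = inhibition: plate controls were enzyme without inhibitor for no effect and buffer without enzyme for full effect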
Conditions: purified cruzain, Z-FR-AMC fluorescence, no detergent
Summary of the method: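 Detergent-free condition (0.00005% Triton X-100) in acetate buffer pH 5.5 with DTT. 1.5 nM enzyme and compound were pre-mixed 15 min, then 2 uM Z-FR-AMC substrate added; reaction progress from fluorescence change between first and third reads (60 s).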
Potency is the fitted concentration of half-maximal effect; tags give direction and shape of the fitted curve.

| Structure (SMILES) | Potency | max response, negative = inhibition |
| --- | --- | --- |
| COc1ccc(CCNC(=O)CS(=O)(=O)Cc2nc(-c3cccc(Cl)c3)oc2C)cc1OC | inconclusive: 39.8 µM [activator, single point] | – |
| O=S(=O)(c1ccccc1)N1CCC2(CCN(Cc3nccs3)CC2)CC1 | – | inactive: -5.27% |
| CCS(=O)(=O)Nc1ccc(-c2cn3c(C)csc3n2)cc1 | – | inactive: -18.7% |
| O=C(N=Nc1c(O)n(Cc2ccccc2)c2ccccc12)c1cc2ccccc2cc1O | active: 7.94 µM | – |
| CCOC(=O)N1CCN(C(=O)CN(Cc2ccc(Cl)cc2)S(C)(=O)=O)CC1 | inconclusive: 25.1 µM [activator, partial curve] | – |
| Cc1noc(C)c1S(=O)(=O)Nc1ccc(C(=O)N2CCN(c3ccc(Cl)cc3)CC2)cc1 | inconclusive: 25.1 µM [activator, single point] | – |
| O=C(Cn1cc(C(=O)c2cccs2)c2ccccc21)Nc1ccc(Br)cc1 | inconclusive: 39.8 µM [inhibitor, single point] | – |
| CCN1C(=O)c2ccccc2S(=O)c2ccc(C(=O)NCc3ccc(Cl)cc3)cc21 (centres undefined) | – | inactive: -5.45% |
| O=C(NC(=S)Nc1ccc2c(c1)C(=O)c1ccccc1C2=O)c1ccc(F)cc1 | active: 3.98 µM | – |
| CCOC(=O)c1c(-c2ccccc2)oc2ccc(OCc3cccc(Br)c3)cc12 | active: 10 µM | – |
| COc1ccc(/C(N)=N/OC(=O)c2cc(-c3ccccc3)nc3ccccc23)cc1 | active: 20 µM | – |
| O=C(NCc1cccc(Cl)c1)c1ccc2c(c1)OCO2 | inconclusive: 31.6 µM [inhibitor, single point] | – |
| O=C(Nc1ccc2c(c1)OCO2)c1cn(Cc2ccc(F)cc2)nn1 | inconclusive: 25.1 µM [inhibitor, single point] | – |
| COc1ccc(Nc2c(-c3ccsc3)nc3nc(C)cc(C)n23)cc1 | – | inactive: -0.198% |
| Cc1cccc(C)c1OC(=O)CSc1nnc(-c2ccc3c(c2)OCO3)o1 | – | inactive: -5.68% |
| O=C(c1cccc(C(=O)N2CCN(c3ccccc3)CC2)c1)N1CCN(c2ccccc2)CC1 | inconclusive: 20 µM [activator, partial curve] | – |
| COC(=O)c1ccc(C2C(C(=O)OCC(C)C)=C(C)N=C3SCCC(=O)N32)cc1 (centres undefined) | inconclusive: 39.8 µM [activator, single point] | – |
| Cc1nn(-c2ccc(F)cc2)c2sc(C(=O)OCC(=O)N3CCC(C)CC3)cc12 | inconclusive: 20 µM [activator, partial curve] | – |
| COc1ccc(-c2nc(C#N)c(NCCc3ccccc3)o2)cc1OC | inconclusive: 39.8 µM [activator, single point] | – |
| COc1ccc(Cl)cc1NC(=O)CSc1nnc(Cc2cccn2C)n1-c1ccc(F)cc1 | inconclusive: 25.1 µM [activator, single point] | – |
| Cc1ccc(Cn2c(CN3CCN(c4cccc(Cl)c4)CC3)nc3c2c(=O)n(C)c(=O)n3C)cc1 | inconclusive: 5.01 µM [activator, full curve] | – |
| C=CCOC(=O)C1=C(C)NC(SCC(=O)Nc2ccccc2)=C(C#N)C1c1ccco1 (centres undefined) | – | inactive: -21.2% |

| Structure (SMILES) | Potency | max response, negative = inhibition |
| --- | --- | --- |
| COCCCNC(=O)c1ccc(Cn2c(=O)c3cccn3c3cccnc32)cc1 | – | inactive: 5.72% |
| COc1ccc(C(C)=O)cc1CSc1nnc(Nc2c(C)cccc2C)s1 | inconclusive: 39.8 µM [inhibitor, single point] | – |
| Cn1c(C(=O)NCc2cccc(Cl)c2)cc2oc3ccccc3c21 | inconclusive: 31.6 µM [inhibitor, single point] | – |
| O=C(/C=C/c1cccc([N+](=O)[O-])c1)Nc1cccc(NC(=O)c2cccs2)c1 | inconclusive: 39.8 µM [inhibitor, single point] | – |
| COc1ccc(-c2csc(NC(=O)CSc3nc(SC)ns3)n2)cc1 | inconclusive: 31.6 µM [inhibitor, single point] | – |
| COc1ccc(N2CCN(C(c3cc(OC)ccc3OC)c3nnnn3CC3CCCO3)CC2)cc1 (centres undefined) | inconclusive: 31.6 µM [activator, single point] | – |
| CCSc1ccc(C(=O)Nc2cccc(C)n2)cc1[N+](=O)[O-] | inconclusive: 39.8 µM [inhibitor, single point] | – |
| CCC(Sc1nc2n[nH]c(C)c2c(=N)n1-c1cc(Cl)ccc1C)C(=O)N1CCOCC1 (centres undefined) | inconclusive: 39.8 µM [activator, single point] | – |
| COc1ccc(NC(=O)CSc2nnc(COc3ccccc3)n2Cc2ccco2)cc1OC | inconclusive: 39.8 µM [activator, single point] | – |
| COc1ccc(C)c2sc(N3CCN(C(=O)c4ccco4)CC3)nc12 | inconclusive: 39.8 µM [activator, single point] | – |
| O=C(Nc1nc(-c2ccc(S(=O)(=O)N3CCCC3)cc2)cs1)c1cccs1 | – | inactive: -26.8% |
| Cc1cc2cc(CNC(=O)c3ccc4c(c3)OCO4)ccc2[nH]1 | inconclusive: 31.6 µM [inhibitor, single point] | – |
| Cc1ccc(CNC(=O)Cn2c3ncccc3c(=O)n2-c2ccc(C)cc2)cc1 | – | inactive: 4.93% |
| O=C(O)[C@H]1CN(CCCP(=O)(O)O)CCN1 | – | inactive: 5.46% and inactive: -1.44% |
| COc1ccc2[nH]c3c(c2c1)CCNC3=O | – | inactive: -2.72% |
| COc1ccc(Cn2c(=O)[nH]c3cc(C(=O)NCCC(C)C)ccc3c2=O)cc1 | – | inactive: 11% |
| COc1cc(C(=O)N(Cc2ccc(F)cc2)Cc2ccco2)cc(OC)c1OC | inconclusive: 39.8 µM [activator, single point] | – |
| CC(C)(C)c1nnc2sc(SCC(=O)c3ccccc3)nn2c1=O | inconclusive: 31.6 µM [inhibitor, single point] | – |
| Cc1ccc(/C=C/C(=O)Nc2nc(-c3cccs3)ns2)cc1 | inconclusive: 25.1 µM [inhibitor, single point] | – |
| CCN1CCN(C(=O)c2ccc3c(c2)N(Cc2cccc(Cl)c2)C(=O)c2ccccc2S3=O)CC1 (centres undefined) | – | inactive: -0.516% |
| COc1ccc(CCNC(=O)CSc2nc3nc(C)c(Cc4ccc(C)cc4)c(C)n3n2)cc1OC | inconclusive: 39.8 µM [activator, single point] | – |
| Cn1c(C(=O)N2CCN(c3nc4ccccc4s3)CC2)cc2sccc21 | – | inactive: -21.6% |

| Structure (SMILES) | Potency | max response, negative = inhibition |
| --- | --- | --- |
| CC(=O)OC[C@H]1O[C@@H](O/N=C(\C)CCN2CCCCc3nc(C)c(C)cc32)[C@H](OC(C)=O)[C@@H](OC(C)=O)[C@@H]1OC(C)=O | inconclusive: 25.1 µM [activator, single point] | – |
| O=S(=O)(c1ccc(Cl)cc1)c1nc(-c2ccccc2Br)oc1NCc1ccccc1 | inconclusive: 39.8 µM [inhibitor, single point] | – |
| CC(/C=C/c1ccco1)=N/NC(=O)c1ccccc1Cl | inconclusive: 20 µM [inhibitor, partial curve] | – |
| CC(C)(C)c1ccc(OCC(=O)N/N=C/c2ccc(N3CCOCC3)cc2)cc1 | inconclusive: 39.8 µM [activator, single point] | – |
| CCn1nc(-c2ccccc2)c(-c2ccccc2)c(C(=O)Nc2ccc(S(N)(=O)=O)cc2)c1=O | inconclusive: 39.8 µM [activator, single point] | – |
| CCCCCCC(=O)Nc1nc(C)c(-c2csc(Nc3ccc(Cl)cc3)n2)s1 | inconclusive: 3.98 µM [inhibitor, full curve] | – |
| COC(=O)c1c(SC)nc2ccccc2c1OCc1ccc(Br)cc1 | inconclusive: 25.1 µM [inhibitor, single point] | – |
| COc1cc(OC)cc(C(=O)Nc2cc(-c3nc4ccccc4[nH]3)ccc2C)c1 | inconclusive: 39.8 µM [activator, single point] | – |
| CCCC[C@@]1(C2CCCC2)Cc2cc(OCC(=O)O)c(Cl)c(Cl)c2C1=O | inconclusive: 39.8 µM [activator, single point] | – |
| CC1(C)CCCN(C(=O)c2ccc3c(c2NCCO)C(=O)c2ccccc2C3=O)C1 | inconclusive: 39.8 µM [activator, single point] | – |
| O=C1c2cccc3c(N4CCOCC4)c([N+](=O)[O-])cc(c23)C(=O)N1c1cccc2ccccc12 | active: 12.6 µM | – |
| Cc1cccc(-c2noc(-c3ccc(NCc4ccco4)c([N+](=O)[O-])c3)n2)c1 | inconclusive: 7.94 µM [inhibitor, single point] | – |
| COc1ccc(OC)c(NC(=O)c2ccc3c(SCC(=O)O)c4c(nc3c2)CCCC4)c1 | inconclusive: 39.8 µM [activator, single point] | – |
| O=C1C2C3c4ccccc4C(c4ccccc43)[C@@H]2C(=O)N1c1nc(-c2ccccc2)cs1 (some centres undefined) | active: 12.6 µM | – |
| O=S(=O)(c1ccc(Cl)cc1)c1nc(-c2cccc(Br)c2)oc1NCc1ccccc1 | active: 12.6 µM | – |
| COc1ccc(-c2nnc(SCC(=O)Nc3cc(OC)ccc3OC)nc2-c2ccc(OC)cc2)cc1 | inconclusive: 6.31 µM [inhibitor, single point] | – |
| Cc1cc2nnc(SCC(=O)Nc3cc(S(=O)(=O)N4CCOCC4)ccc3Cl)n2c2ccccc12 | inconclusive: 39.8 µM [activator, single point] | – |
| O=C(Nc1cccc2ccccc12)NC1CCCc2ccccc21 (centres undefined) | active: 12.6 µM | – |
| O=C(N/N=C\c1ccc(-c2ccccc2[N+](=O)[O-])o1)C1COc2ccccc2O1 (centres undefined) | inconclusive: 39.8 µM [inhibitor, single point] | – |
| N#Cc1ccccc1NC(=O)C(=O)NCCc1csc(-c2ccc(C(F)(F)F)cc2)n1 | – | inactive: 8.27% |
